Laboratory results published in article PMC4336329 (PLoS ONE, 2015).
About 14,000 (4.5%) of roughly 310,000 compounds showed an effect of 50% or more. The effect is printed as a negative number. Some of the results follow.

biological target: human ether-à-go-go-related gene (hERG) potassium channel (human, UniProt Q12809); experiment: primary screen, population patch clamp on CHO cells stably expressing hERG
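Further: peak tail current of the secondary pulse compared with the same well before compound.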

Sequence of human ether-à-go-go-related gene (hERG) potassium channel (Q12809 whole entry, looked up): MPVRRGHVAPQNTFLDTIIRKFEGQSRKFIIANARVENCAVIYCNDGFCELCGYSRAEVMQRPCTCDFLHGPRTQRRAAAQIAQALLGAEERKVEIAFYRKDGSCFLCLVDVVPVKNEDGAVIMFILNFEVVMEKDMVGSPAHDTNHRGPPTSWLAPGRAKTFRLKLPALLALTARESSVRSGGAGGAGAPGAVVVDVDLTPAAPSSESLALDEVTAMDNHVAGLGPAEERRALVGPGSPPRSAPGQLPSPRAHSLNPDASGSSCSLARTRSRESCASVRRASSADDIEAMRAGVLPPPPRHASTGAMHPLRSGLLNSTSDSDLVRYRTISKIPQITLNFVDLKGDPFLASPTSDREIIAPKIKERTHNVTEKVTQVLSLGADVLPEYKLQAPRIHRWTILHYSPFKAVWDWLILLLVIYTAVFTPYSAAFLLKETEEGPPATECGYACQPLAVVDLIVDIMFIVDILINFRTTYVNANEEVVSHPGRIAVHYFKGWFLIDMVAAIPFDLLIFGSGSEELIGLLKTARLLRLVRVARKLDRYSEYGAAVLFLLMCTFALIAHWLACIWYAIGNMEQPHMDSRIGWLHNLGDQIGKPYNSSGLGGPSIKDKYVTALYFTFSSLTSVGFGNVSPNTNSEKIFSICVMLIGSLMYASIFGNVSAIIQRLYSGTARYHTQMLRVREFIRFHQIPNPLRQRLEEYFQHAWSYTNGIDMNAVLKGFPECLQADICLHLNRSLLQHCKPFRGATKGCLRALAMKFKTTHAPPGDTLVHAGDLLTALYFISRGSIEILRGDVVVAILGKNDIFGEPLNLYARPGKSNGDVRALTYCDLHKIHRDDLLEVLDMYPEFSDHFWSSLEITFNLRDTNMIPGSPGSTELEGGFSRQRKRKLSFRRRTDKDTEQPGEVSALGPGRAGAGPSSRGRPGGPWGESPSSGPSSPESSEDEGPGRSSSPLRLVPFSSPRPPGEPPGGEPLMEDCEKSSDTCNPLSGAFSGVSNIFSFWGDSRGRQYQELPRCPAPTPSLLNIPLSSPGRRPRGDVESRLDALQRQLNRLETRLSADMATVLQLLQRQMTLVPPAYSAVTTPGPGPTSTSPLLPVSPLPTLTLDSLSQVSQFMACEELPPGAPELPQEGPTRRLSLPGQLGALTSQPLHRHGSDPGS

Structure (SMILES)	hERG current change (%, negative = inhibition) at 10uM [%]
CCOC(=O)C1CCN(C2=NC(=O)/C(=C/c3ccc(O)cc3)S2)CC1	-67.1
CCC(=O)N1CCN(c2ccc(Cl)cc2NC(=O)c2ccc(N3CCCC3)c([N+](=O)[O-])c2)CC1	-6.9
COc1ccc(/C=C(/NC(=O)c2ccccc2)C(=O)NC2CCS(=O)(=O)C2)cc1 (stereo not shown)	-5.25
O=C(NC1CCCCCC1)c1nnc(Cc2ccc(Cl)cc2)o1	1.29
Cn1c(N)c(C(=O)COC(=O)c2cc(C3CC3)nc3ccccc23)c(=O)n(Cc2ccccc2)c1=O	38
O=c1c2ccccc2nc2n1CCC2O (stereo not shown)	5.26
Cc1cc(C)c(NC(=O)CN(C2CCCCC2)C2CCCCC2)c(C)c1	-8.27
Cc1cc(C)n(C(=O)C(C)N2C(=O)c3ccccc3C2=O)n1 (stereo not shown)	-9.79
CCC1CCCCN1C(=O)CSc1nnc(-c2ccc(Cl)s2)o1 (stereo not shown)	-18.7
Cc1cc(C(=O)COC(=O)C2=COCCO2)c(C)n1-c1cccc(F)c1	-46.4
CC(=O)c1cccc(S(=O)(=O)N2CCC(c3nc4ccccc4[nH]3)CC2)c1	-56.6
CCCn1ncc(OC)c(Cl)c1=O	11.4
COC(=O)c1c(NC(=O)CC2SC(N)=NC2=O)sc2c1CCCC2 (stereo not shown)	8.98
CCOC(=O)C1(Cc2ccccc2)CCN(Cc2cc(OC)c3c(c2)OCO3)CC1	-60.7
O=C(O)c1cc(NN=C2c3ccccc3-c3ccccc32)ccc1Cl	13.7
O=C(Cc1nnc(NC(=O)c2ccccc2)s1)N/N=C/c1cccc(O)c1	15.5
CCOC(=O)CSc1nc2sc3c(c2c(=O)n1-c1ccccc1)CCN(C(C)C)C3	16.1
Cc1cc(NC(=O)CN2C(=O)NC(Cc3ccccc3)C2=O)no1 (stereo not shown)	-0.763
CCN1CCN(CCC(=O)Nc2cccc(OC)c2)CC1.Cl	-10.6
Nn1c(SCC(=O)Nc2ccc(F)cc2F)nnc1C1CCCCC1	-19.1
CCc1cc2c(N[C@@H](Cc3ccccc3)C(=O)O)ncnc2s1	20.1
Clc1cc(/C=N\NC2=NCCN2)cc(Cl)n1	-20
Cc1ccc(OCC(=O)NN2C(=O)c3ccccc3C2=O)cc1	-16.9

Structure (SMILES)	hERG current change (%, negative = inhibition) at 10uM [%]
Cc1ccc(Cn2ncc(C)c2N)o1	16.3
Nn1c(SCC(=O)N2CCCCC2)nnc1-c1ccncc1	14.6
CCOC(=O)c1c(C)c(C(=O)NCCOC)c(C)n1CC	-4.8
COc1ccc(S(=O)(=O)N2c3ccccc3NC(=O)CC2C)cc1 (stereo not shown)	9.7
O=C(CCN1c2ccccc2Sc2ccccc21)OCc1nnc(-c2ccccc2)o1	5.92
CCN(CC)CCNC(=O)c1cn(CC)c2ccc(S(=O)(=O)N3CCOCC3)cc2c1=O	14.6
CCOc1cc(NC(=S)NCCCN2CCOCC2)c(OCC)cc1NC(=O)c1cccc(F)c1	-1.87
CCOc1ccccc1-n1c(SCC(N)=O)nc2ccccc2c1=O	0.156
COc1cc(NC(=O)c2cccnc2)ccc1NC(=O)c1ccccc1Cl	3.64
CC1=Nn2c(nnc2-c2ccccn2)SC1	-5.5
O=C1C2C(C(=O)N1/N=C/c1cc([N+](=O)[O-])c(O)cc1O)C1C=CC2C12CC2 (stereo not shown)	-17.7
Cc1ccc(S(=O)(=O)N2CCN(S(=O)(=O)c3ccc(C)cc3)C2)cc1	-24.9
CCOC(=O)C(=NC(C)(C)C)NNc1cc(Cl)ccc1Cl	5.53
COc1ccc(Cc2nnc(NC(=O)C3CC(=O)N(c4ccccc4C)C3)s2)cc1OC (stereo not shown)	11.2
O=C(COc1ccc(S(=O)(=O)N2CCOCC2)cc1)NC1CCCC1	-10.1
O=C1CSC(c2ccccc2)N1c1ccccc1F (stereo not shown)	10.7
O=C(O)c1cc(S(=O)(=O)Nc2ccc3cn[nH]c3c2)ccc1O	-1.79
COC/C=C/C1=CC2=CC(=O)C(C)(OC(=O)CCC(=O)OC)C(=O)C2=CO1 (stereo not shown)	1.38
CCCNC(=O)c1c(N)n(Cc2ccco2)c2nc3ccccc3nc12	1.34
O=C(CSc1nnc(CNC(=O)c2c(F)cccc2F)o1)NCc1ccco1	9.67
CC(C)CNC(=O)c1cccc(Cn2cc(Cl)cn2)c1	4.12
CCc1cc(SC#N)ccc1N	12.9
COc1ccc(C(CNC(=O)CN2C(=O)NC3(CCCC3)C2=O)N(C)C)cc1 (stereo not shown)	15.6

Structure (SMILES)	hERG current change (%, negative = inhibition) at 10uM [%]
COC(=O)CSCC(=O)Nc1nnc(-c2cccc(C)c2)s1	13.7
Cc1sc2ccccc2[n+]1CC(=O)O.[Br-]	9.88
Cc1ccnc(NC(=O)CNC(=O)c2ccco2)c1	8.46
O=C(CN(Cc1ccc(F)cc1)S(=O)(=O)c1ccc(S(=O)(=O)N2CCOCC2)cc1)Nc1ccccc1	3.83
O=C(Nc1cccc(C(F)(F)F)c1)c1cccnc1	-21.3
Cc1cc(N2C(=O)C3C4C=CC(C4)C3C2=O)no1 (stereo not shown)	14.7
CCOc1ccc(C(=O)Nc2cc(Cl)ccc2-n2cncn2)cc1OC	-5.4
Cc1ccc(S(=O)(=O)N(C)C)cc1NC(=O)CN1C(=O)NC(Cc2ccccc2)C1=O (stereo not shown)	8.61
CCCOc1ccc(NC(=O)C2CC(=O)N(C)C(=Nc3cccc(OC)c3)S2)cc1 (stereo not shown)	8.39
CCOC(=O)N1CCC(=C(C#N)C(=O)Nc2cc(OC)ccc2OC)CC1	19.8
COC(=O)c1cccc(NC(=O)c2cnccn2)c1	17.2
COc1ccc(OC)c(/C=c2\sc3nc(-c4cccs4)nn3c2=O)c1	1.04
COc1ccccc1-c1nc2cc(Cl)ccc2c(=O)n1O	24.8
COc1ccc2c(c1)O[C@@H](c1cccc(C(F)(F)F)c1)[C@H](OC(=O)N[C@H]1CCCc3ccccc31)C2=O	-13.6
CS(=O)(=O)O.O=C(O)c1ccc2c(c1)c1c3n2CCNC3CCC1 (stereo not shown)	20.7
COC(=O)Cn1c(=O)oc2ccc(C)cc21	-3.99
Cc1ccc(C(=O)NN2C(=O)C3C4C=CC([C@@H]3C2=O)C42CC2)cc1 (stereo partly shown)	18.6
Cc1ccc(NC(=O)Cc2c(C(=O)O)n(C)c3ccccc23)cc1F	30.3
COc1cccc(/C=C/C(=O)NCc2ccc(S(N)(=O)=O)cc2)c1	-4.13
O=C(Nc1ccc(N2CCCC2)cc1)c1ccccc1F	16.6
COC(=O)c1c(C(=O)OC)c(-c2ccc(F)cc2)n2c1CSC2	-2.55
O=c1oc2ccc3ccccc3c2cc1-c1nnc(-c2cccs2)o1	-1.73
Cc1ccc(CN2CCN(C/C=C/c3ccc(F)cc3)CC2CCO)o1 (stereo not shown)	-54.5

Structure (SMILES)	hERG current change (%, negative = inhibition) at 10uM [%]
CCOc1ccc(-n2cnc3sc4c(c3c2=O)CCCC4)cc1	0.253
COc1ccc2cc3c(N)nn(C(=O)Cc4c[nH]c5ccccc45)c3nc2c1	18.1
CCN1CCC(NC(=O)Nc2cc(Cl)ccc2OC)CC1	-2.83
COc1ccc([C@H]2CC(=O)C=C(c3ccc(OC)c(F)c3)C2)cc1	14
CCN(CC)C(=O)C1CCCN(Cc2ccc3ccccc3c2)C1 (stereo not shown)	-19
COc1ccc(C2=NCCc3cc(OC)c(OC)cc32)cc1	-35.1
CCOc1nc(Nc2ccc(OC)c(Cl)c2)nc(N2CCN(c3ccc(OC)cc3)CC2)n1	14.9
Cc1ccc(C(=O)NCCNC(=O)CN2CCCC2)cc1	5.16
CCCCOc1ccc(C(=O)NCC(=O)N2CCN(Cc3ccc4c(c3)OCO4)CC2)cc1	-42.4
O=C(/C=C/c1ccnc2ccccc12)c1cccs1	0.0515
COC(=O)C1CN(S(=O)(=O)c2ccc(NC(C)=O)cc2)CCS1 (stereo not shown)	13.4
O=C(O)C1CCN(c2ncccn2)CC1	9.57
CCC(=O)N(C1=C(NC(C)C)C(=O)c2ccccc2C1=O)C(C)C	4.82
O=C(O)c1ccccc1C(=O)NC1Cc2ccccc2C1	2.54
CC(C)(C)OC(=O)N1CCCN(C(=O)c2ccc(Cl)cc2)CC1	13
Clc1ccc(CSc2nnc(NC3=NCCCCC3)s2)cc1	-6.08
Cc1no[n+]([O-])c1COc1ccccc1/C=C1\NC(=S)NC1=O	3.63
O=c1[nH][nH]c(-c2ccccc2)c1C=Nc1ccccc1Cl	-9.47
Nc1c2c(nc3ccn(Cc4ccccc4)c(=O)c13)CCC2	-66
CC(=O)c1cccc(NC(=O)N2CCCC2C(=O)Nc2cccc(C)c2C)c1 (stereo not shown)	-0.374
O=C1C=C(NCc2ccc3c(c2)OCO3)CC(c2ccccc2)C1 (stereo not shown)	-76.9
COc1ccc(CCNC(=O)CN(c2cc(C)cc(C)c2)S(=O)(=O)c2c(C)noc2C)cc1OC	-22.6
